{
  "source": "patent US20040009890A1",
  "about": "“Broad spectrum inhibitors” (priority 2002, published 2004)",
  "target": "wild type and V82F/I84V mutant HIV-1 protease",
  "test": "Inhibition (Ki) of wild type and V82F/I84V mutant HIV protease",
  "format": "biochemical",
  "conditions": "wild type vs V82F and 184V active site mutant HIV protease",
  "data": [
    {"smiles": "COc1ccc(S(=O)(=O)N(CC(C)C)C[C@@H](O)[C@H](Cc2ccccc2)NC(=O)O[C@H]2CO[C@H]3OCC[C@H]32)cc1", "note": "[Compound 1]", "values": [
      {"measurement": "Ki values for wild type and mutant enzymes (effect of active site mutations)", "result": "Ki values for wild type and mutant enzymes are similar"}
    ]},
    {"smiles": "CC(C)CN(C[C@@H](O)[C@H](Cc1ccccc1)NC(=O)O[C@H]1CCOC1)S(=O)(=O)c1ccc(N)cc1", "note": "[Compound 2, Amprenavir]", "values": [
      {"measurement": "Ki values for wild type and mutant enzymes (effect of active site mutations)", "result": "dramatically affected by the active site mutations"}
    ]}
  ]
}
